# Reference: the supplement of paper PMC3334620
# Over roughly 33,000 sequences, “E-score (-0.5 to 0.5)” has its median near -0.01; the highest 2% begin near 0.26. The list shows a part of the results.
# Biological target: Ste12 (UniProt P13574)
# Assay: PBM E-score (8-mer binding enrichment) (E-score (-0.5 to 0.5)); higher = stronger / more preferred TF binding; most listed sequences are background and not binding sites
# Settings: protein concentration: 200 nM; construct: GST-DNA-binding domain
# In short: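 GST-tagged yeast TFs (full-length or DNA-binding domain) were made by PURExpress in vitro transcription/translation and applied at about 100-200 nM to universal all-10-mer Agilent arrays. The arrays were made double-stranded by primer extension, on fresh or once-stripped slides. Bound protein was detected with fluorescent anti-GST, and scans were normalised with masliner. Each ungapped eight-base word, pooled with its reverse complement, received an E-score (modified Wilcoxon-Mann-Whitney statistic) from the Universal PBM Analysis Suite.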
row,Sequence,PBM E-score
1,CCTAAGGA,-0.124
2,AGGCGACT,-0.275
3,AGCCCGCA,-0.114
4,ACCTGAGA,0.167
5,CCCTCTAC,-0.186
6,AATGATTC,0.044
7,AAATGCCG,0.138
8,CCGAACCA,0.143
9,TCGGAGCA,-0.149
10,AAAAGGAC,0.104
11,AACCACTG,-0.0131
12,ACCGACCC,-0.0546
13,GAGCCCGA,0.0856
14,ACCGCAGT,-0.0555
15,GAGTATTA,0.0882
16,AATAGCGG,0.00052
17,CCTTCGTC,-0.092
18,CTCCGCCC,0.02
19,GCAGAGTA,-0.113
20,GAGATTGC,-0.0611
21,AGCGTAGC,-0.163
22,ATTGAAGG,-0.102
23,CCTGTGAC,0.043
24,AAGCTGAC,-0.0325
25,CCGGCATC,-0.0932

row,Sequence,PBM E-score
1,CAAACGGC,-0.103
2,AATTATGA,0.222
3,GCAGATAA,0.00589
4,CCAAGTCG,-0.182
5,ATCGTGCG,0.207
6,CGCCTAAG,-0.0898
7,TCCACAGA,0.124
8,GAACTCCA,-0.0434
9,CGAACTGA,-0.0637
10,CGGAGACG,-0.0526
11,CGCCACTA,-0.0513
12,TGCCCGCA,0.0267
13,CGAAGTCC,-0.195
14,ATATACGC,-0.133
15,GACCCTCA,-0.226
16,GTATAAGA,0.143
17,AATGCTGA,-0.0171
18,GCCGCTGA,-0.0934
19,GAGACAGC,0.178
20,CCCACCTC,-0.0532
21,AGCTTACG,-0.18
22,CGGGAAGA,0.237
23,ATGTTATC,0.175
24,ACAAACTG,-0.1
25,AGGCGAGG,-0.153

row,Sequence,PBM E-score
1,GGTGTCAC,0.105
2,ATACCGGG,-0.0462
3,CTACTGAC,-0.0892
4,AGTGCTGG,-0.104
5,GCCAGACA,-0.0517
6,ACCCGAGC,0.0747
7,TGTATCAA,0.392
8,AGAACTAT,-0.0642
9,GAGCTATA,-0.143
10,AGTTATCA,0.084
11,CGCCTCCG,-0.18
12,ATTCTCTG,-0.0795
13,ACCCCGCA,-0.0313
14,CCTGTTGA,-0.11
15,AGAGTACA,-0.126
16,AGACACCA,0.0225
17,GAGCGTTA,0.104
18,ATTGGCAC,-0.0475
19,CTACGGAC,-0.0813
20,GATACGGA,0.0438
21,TAAGATCA,0.172
22,GCAAGCCA,-0.0403
23,GAATATGC,0.00468
24,AGTTGTAT,0.165
25,ATTACGGG,0.0285

row,Sequence,PBM E-score
1,ATTCAAAT,0.136
2,CTCGCTAA,0.0158
3,AGATCGCT,-0.0191
4,TCGACCCA,-0.00739
5,ATGCATGC,-0.142
6,AACGGAAC,0.195
7,AGCAATAA,0.152
8,GACTTGCA,-0.0102
9,AGGCAAAT,0.0327
10,AAAAACAG,0.172
11,ACCACAAT,0.0368
12,CCATAGAG,-0.0627
13,GCCGTTCA,-0.0896
14,GAGACCTA,-0.0109
15,GCGACGAC,-0.0741
16,AGAGTGGA,-0.165
17,GAACGCGC,-0.042
18,AGGTGAAA,0.235
19,ACTCACAA,-0.112
20,CAATGCCC,-0.153
21,CACCGATC,-0.0704
22,CCACTAGC,-0.168
23,AATTCATG,0.255
24,CCACAAGG,-0.107
25,GCGGATCC,-0.0376

row,Sequence,PBM E-score
1,GGCCAACA,-0.0693
2,ACACAGAT,-0.00222
3,CCCAGCGA,-0.0316
4,ACGAGTTC,-0.0134
5,CTACCTTC,0.0124
6,CAGCAATG,-0.104
7,AGACGGTG,-0.117
8,CAAGACAG,0.167
9,ACTACCCG,-0.0722
10,CTCATCGA,0.00039
11,AAAGCAGC,-0.0185
12,AACGCCAC,0.0348
13,CATGATTA,0.0888
14,CAAAGACG,-0.061
15,ATGGGGAC,-0.0895
16,ACCTCTCA,-0.0747
17,CTACTAAC,0.0522
18,GCCGCCGC,-0.0603
19,ATGCCGAC,0.0109
20,ATGCCGTG,-0.0726
21,AAGCTAGC,-0.242
22,AGGCTGAC,0.0313
23,CCATAATC,0.139
24,CAGGCGTC,-0.209
25,ACTGACAG,0.153

row,Sequence,PBM E-score
1,ATGAACAG,-0.0823
2,AGCGTTAG,-0.167
3,CCCTTAGG,-0.252
4,GTGAAAAA,0.232
5,AGAGGAAC,-0.0942
6,CTCCTCCA,0.0617
7,ATGAATAG,-0.0925
8,GTTATTTA,0.107
9,AGCTTAGC,-0.197
10,AAAGCTGA,0.0643
11,AGGTTTCC,-0.0692
12,CAATCGAC,-0.0787
13,ACGAGAGT,-0.0106
14,GCCCGTAA,-0.0256
15,AGAGTGCG,0.0047
16,AGATCTAA,0.0181
17,CGACCGAA,0.00328
18,GAAGTTGA,0.0671
19,AAGGGTAT,0.0611
20,GGAATAGA,-0.0989
21,CAGAGAAG,0.104
22,AATTAGCG,0.12
23,AGAACGTA,-0.0299
24,ACTTCCAG,-0.19
25,AGTAGCCG,-0.0626

row,Sequence,PBM E-score
1,CCCGCGCC,0.168
2,TCTCAACA,0.18
3,GAACTCGC,-0.196
4,AGAGTAAT,0.191
5,TCATTGCA,-0.0373
6,AGGGACAG,-0.203
7,ACCGCTGG,-0.148
8,CGCCCAAC,0.0194
9,CAATGCGA,-0.00861
10,CCTCAAAC,0.148
11,CCACCCCG,0.161
12,AACAATGA,0.0731
13,CCCTCCCC,0.333
14,ATTCTAAG,0.0129
15,AATGTCTC,0.14
16,GAAGAGGA,-0.212
17,ACTCTTCT,-0.14
18,AGGTCCGA,-0.0663
19,CTAGCTCC,-0.226
20,CATTCCCA,-0.00441
21,ATGCCGCA,0.0392
22,ACCTGGAA,0.246
